Assay results taken from ChEMBL document CHEMBL1156829.
Where “and” joins values, the source holds several entries; their conditions need not be identical. Identical values can stand only once. The full ranking holds about 5,400 compounds; the median of “IFI” is about 2, and the highest 2% start at about 22. The list shows a part of the results.

assay: NOVARTIS: Inhibition Frequency Index (IFI) - the number of HTS assays where a compound showed > 50% inhibition/induction, expressed as a percentage of the number of assays in which the compound was tested.; assay type: functional

SMILES	IFI
O=[N+]([O-])c1cccc(C(O)CNCc2ccc3c(c2)OCO3)c1 (stereo not given)	0.813%
CCCCCCN(C(=O)c1ccc(C(C)(C)C)cc1)C(CC)c1nc2ccccc2c(=O)n1-c1ccccc1OC (stereo not given)	0.926%
COc1ccc(S(=O)(=O)ON=C2C=C(C(C)C)C(=O)C=C2C)cc1	7.69%
CCCCCCN(C(=O)c1cccc(OC)c1)C(CC)c1nc2ccccc2c(=O)n1-c1ccc(Cl)cc1C (stereo not given)	0.935%
O=C(Nc1ccc(Oc2cccnc2)cc1)C1CCN(Cc2cc3ccccc3o2)CC1	0%
CC(C)(C)CC(=O)N1CCC[C@@H]2CN(C(=O)CCOc3ccccc3)CC[C@@H]21	1.92%
CCCC(CCC)C(=O)Nc1ccc2c(c1)N(C(=O)CCCl)c1ccccc1CC2	1.89%
COc1cc(NC(C)CCCN(Cc2ccc(F)cc2)C(=O)Nc2ccc(Br)cc2)c2ncccc2c1 (stereo not given)	3.77%
COc1ccc(C(=O)Nc2ccc(-c3nc4ccc(NC(=O)c5ccc(OC)cc5)cc4[nH]3)cc2)cc1	12.8%
COc1ccc(C=NN=C2NC(=O)C(CC(=O)Nc3ccccc3)S2)cc1OC (stereo not given)	0%
CCc1cc2c3c(c1)C1(C(=O)N3C(C)(C)CC2C)C(C#N)=C(N)Oc2cc(C)oc(=O)c21 (stereo not given)	0%
Cc1occc1C(=O)NN=C/C(Br)=C/c1ccccc1	0%
CC(C)CN1C(=O)c2ccccc2C(C(=O)Nc2ccc(F)c(Cl)c2)C1c1cccs1 (stereo not given)	3.12%
Cc1ccn2c(NC(C)(C)CC(C)(C)C)c(-c3ccccc3OC(=O)CCc3ccccc3)nc2c1	3.74%
O=C(OCCOc1ccc([N+](=O)[O-])cc1)c1ccc(Br)o1	0.769%
Nc1ccc(Nc2ccc(N)cc2)cc1	3.94%
C1=C(c2ccccc2)CCN(c2ncnc3c2nc2n3CCCCC2)C1	7.69%
CCc1nn(-c2ccccc2)c2nc(-c3cc(Br)ccc3O)c3cc(OC)c(OC)cc3c12	0%
CCOc1cc(/C=C(\C#N)c2nc3ccccc3[nH]2)ccc1OCc1ccccc1C#N	0%
CCCOC(=O)C1=C(C)NC2=C(C(=O)CC(c3ccc(OC)c(OC)c3)C2)C1c1cccc([N+](=O)[O-])c1 (stereo not given)	2.44%
CC(C)CC1=Nc2cc(C(=O)NCc3ccccc3)ccc2CN1Cc1cccnc1	3.8%
C[C@H](Nc1cncc(-c2ccc(Cl)cc2)n1)c1ccccc1	0%
CCOc1ccc(C(=O)Nc2cc(OC)ccc2OC)cc1	0%
CCC(C)(C)C1CCc2c(sc(NC(=O)c3ccc(F)cc3)c2C(N)=O)C1 (stereo not given)	0%

SMILES	IFI
COc1ccc(N2C(=O)c3cccnc3C2=O)cc1	1.15%
Cc1ccc2nc3c(c(NCCCN(C)C)c2c1)CCC3	15.4%
CC(C)(C)c1ccc(C(=O)N2CCCn3cccc3C2c2ccc(C(C)(C)C)cc2)cc1 (stereo not given)	4.59%
COc1ccc(NC(=O)COc2ccccc2C(C)C)c(OC)c1	1.49%
O=C(NCc1ccccc1)c1cnc(NCCCn2ccnc2)nc1NCC1CCCCC1	2.91%
COc1ccc2cc3[n+](cc2c1OC)CCc1cc2c(cc1-3)OCO2	1.84%
Cc1c2oc3c(C)ccc(C(=O)N[C@@H]4C(=O)N[C@H](C(C)C)C(=O)N5CCC[C@H]5C(=O)N(C)CC(=O)N(C)[C@@H](C(C)C)C(=O)O[C@@H]4C)c3nc-2c(C(=O)N[C@@H]2C(=O)N[C@H](C(C)C)C(=O)N3CCC[C@H]3C(=O)N(C)CC(=O)N(C)[C@@H](C(C)C)C(=O)O[C@@H]2C)c(N)c1=O	18% and 20.3%
COc1ccc(CNC(=O)C2CNCC2c2ccc(C(F)(F)F)cc2)cc1 (stereo not given)	1.41%
O=C(CCCOc1ccc(Cl)cc1Cl)NCCCn1ccnc1	1.56%
CC1=CC(=C(C#N)c2nc3ccccc3s2)C=C(C)N1c1ccc2c(c1)OCO2	3.12%
COc1ccc(/C=C2/SC(=N)N(c3ccccc3OC)C2=O)cc1	2.35%
CCc1ccc(C(Nc2cc(C)ccn2)c2ccc3cccnc3c2O)cc1 (stereo not given)	14.3%
CCN(CC(=O)N1CCc2cc(OC)c(OC)cc2C1C)C(=O)Nc1ccc(Br)cc1 (stereo not given)	2.83%
CCOC(=O)C1=C(C)NC2=C(C(=O)C(C(=O)OCC)C(c3cccc(OC)c3)C2)C1c1cc(OC)c(OC)c(OC)c1 (stereo not given)	3.53%
COc1ccc(NC(=O)Cn2ncc3ccccc32)cc1OC	2.13%
Cc1ccc(-c2cn3ccccc3[n+]2-c2ccccc2)cc1	6.52%
COc1ccc(CCN2C(=O)N(CCN(C)C)C(=O)C23CCN(Cc2ccc(O)cc2)CC3)cc1	2.41%
N#CC(C#N)C(/C(Sc1ccc([N+](=O)[O-])cc1)=C(/O)c1ccccc1)c1cccs1 (stereo not given)	0%
CCOc1ccc(-c2nc(NC(=O)Cc3cccc(OC)c3)sc2C)cc1	3.23%
C=C1C=CN(Cc2ccccc2)c2ccc(OC)cc21	0%
Clc1ccc(-c2csc3ncnc(NCc4ccncc4)c23)cc1	0%
COC(=O)C1=C(C(=O)OC)SC(=C2C(=S)C(C)(C)Nc3cc(C)ccc32)S1	0%
COc1ccc2cc(C(C)=NO)ccc2c1	1.61%
COc1cc(NC(C)CCCN(Cc2ccc(F)cc2)C(=O)C(C)(C)CCl)c2ncccc2c1 (stereo not given)	1.05%

SMILES	IFI
CCC(c1nc2ccccc2c(=O)n1-c1ccc(F)cc1)N(CCc1ccccc1)C(=O)COc1ccccc1 (stereo not given)	1.07%
CCCNC1=C(N(C(C)=O)c2cccc(F)c2)C(=O)c2ccccc2C1=O	21.4%
Cc1cccc(N2C(=O)C3C(C2=O)C2(c4ccccc4)C(=O)C3(c3ccccc3)C(c3ccc4c(c3)OCO4)=C2c2ccc3c(c2)OCO3)c1 (stereo not given)	0%
COc1cc(NC(C)CCCN(Cc2ccc(OC)c(OC)c2)C(=O)Nc2cccc(Cl)c2Cl)c2ncccc2c1 (stereo not given)	6.42%
O=C(NCCCCCCNC(=O)Nc1ccc(C2=NCCCN2)cc1)Nc1ccc(C2=NCCCN2)cc1	5.41%
CCOC(=O)c1c(C)n(-c2ccccc2)c2ccc(OC(=O)c3ccco3)cc12	0%
CSc1nnc(-c2cccc([N+](=O)[O-])c2)n1Cc1ccccc1	0%
Oc1c2c(nc3cc(-c4ccccc4)nn13)CCCC2	7.14%
COc1ccc(-c2c[n+](CC(=O)c3ccc([N+](=O)[O-])cc3)c3n2CCC3)cc1	2.5%
CCSCCOC(=O)C1=C(C)NC2=C(C(=O)CCC2)C1c1ccc(OC)c(Br)c1 (stereo not given)	2.33%
Cc1nc(NCCCN(C)C)c2sc3nc4c(cc3c2n1)COC(C)(C)C4	2.98%
O=C(COC(c1cccs1)c1cccnc1Cl)N1CCN(CCO)CC1 (stereo not given)	3.92%
O=C(NCCCCNc1ccnc2cc(Cl)ccc12)c1ccccc1Cl	2.78%
O=C(CCl)Nc1ccc2c(c1)OCO2	0%
CCCOC(=O)C1=C(C)NC2=C(C(=O)CC(c3ccc(OC)c(OC)c3)C2)C1c1cccc(C)c1 (stereo not given)	4.71%
COc1cc(CN2CCC3(CC2)CC3C(=O)NCCc2ccccc2OC)ccc1O (stereo not given)	0%
N=c1c2c(n(Cc3cccc(Cl)c3)c3c1CCC3)CCCC2	14.3%
COc1cc(C(Nc2ccccn2)c2ccc3cccnc3c2O)cc(Br)c1OC (stereo not given)	13%
O=C(Nc1ccc(Cl)c(Cl)c1)Nc1ccc(Cl)c(Cl)c1	6.06%
COc1cccc(C(=O)N(C)CCCNc2ccnc3cc(Cl)ccc23)c1	1.85%
O=C(Nc1ccc(Cl)cc1)c1c2c(nc3ccccc13)-c1ccccc1CC2	0%
O=C1c2ccccc2C2=Nc3ccccc3SC(c3ccccc3F)C12 (stereo not given)	0%
Cc1ccnc(NS(=O)(=O)c2ccc(NC(=O)C(C)C)cc2)n1	0%
O=c1c(=O)n(Cc2cccc(C(F)(F)F)c2)ccn1CCc1ccccc1	2.22%

SMILES	IFI
COc1ccc(C(=O)Oc2ccccc2-c2nc3cc(C)ccn3c2NC(C)(C)CC(C)(C)C)c(OC)c1	1.06%
CC1CCC(Nc2ccnc3cc(Cl)ccc23)CC1 (stereo not given)	6.17%
Nc1nc(N)c2cc(S(=O)(=O)N3CCCC3)ccc2n1	11.7%
O=C1C(=Cc2cc([N+](=O)[O-])cc(Br)c2O)C(=O)c2ccccc21	7.69%
COc1cc2c(-c3cc(Br)ccc3O)nc3c(c(-c4ccccc4)nn3-c3ccccc3)c2cc1OC	3.03%
N#Cc1c(-c2ccccc2)cc(N2CCN(C3CCCCC3)CC2)n2c1nc1ccccc12	0%
CCCCNC(=O)C(c1cccc(OC)c1)N1C(=O)c2cc(Oc3ccccc3)ccc2NC(=O)C1CO (stereo not given)	3.03%
FC(F)(F)c1ccc(-c2nc(C34CC5CC(CC(C5)C3)C4)cs2)cc1	4.25%
Cc1ccc(O)c(NC(=O)c2cnn3c(C(F)(F)F)cc(-c4ccc(Br)cc4)nc23)c1	0%
COc1ccccc1CCNCc1cc(-c2ccc(F)cc2)ccc1O	0.909%
CCCN(CC(=O)Nc1cc(C(C)(C)C)nn1-c1cccc(C)c1C)C(=O)C1CCCCC1	0.909%
O=C(O)CC/C(=C1/C=C(c2ccc(Cl)cc2)NC1=O)c1ccc(Cl)cc1	7.69%
CCCN(CCC)S(=O)(=O)c1cc(Br)cc2c1N(C(=O)CC)CC2	0%
CC(C)c1ccc(NC(=O)c2ccc(NCCCN3CCN(c4cccc(Cl)c4)CC3)c([N+](=O)[O-])c2)cc1	0%
COc1cc2nc(SCC(C)C)n(CCCn3ccnc3)c(=N)c2cc1OC	2.38%
C/C(C=C1Sc2ccc3ccoc3c2N1CCO)=C\c1sc2ccc3occc3c2[n+]1CCO	14.3%
O=[N+]([O-])c1cccc(Cl)c1N1CCN(S(=O)(=O)Cc2ccccc2)CC1	0%
CN(CCCNc1ccnc2cc(Cl)ccc12)C(=O)c1cc(Cl)cc(Cl)c1	1.71%
COc1cc(C(=O)NC2CC3CCC(C2)N3C2CC2)cc(OC)c1OC (stereo not given)	0%
CCN(CC)c1ccc2c(C)cc(Nc3ccccc3)[o+]c2c1	7.69%
COc1ccccc1N1C(=N)S/C(=C/c2ccc(N(C)C)cc2)C1=O	15.4%
CCCCCC[P+](N(CCC)CCC)(N(CCC)CCC)N(CCC)CCC	29.1%
COc1cc(CN(CC[C@H](c2ccccc2)c2c(O)ccc3ccccc23)Cc2ccccc2)cc(OC)c1	3.64%
